The target of experiment [1] is epidermal growth factor receptor (EGFR), endogenous in HeLa cells (human (endogenous in HeLa)) (UniProt P00533). In words: co-IP; extracts of EGF-treated HeLa cells transfected with PLD1 constructs, immunoprecipitated with anti-EGFR antibody and immunoblotted.
The target of experiment [2] is T1, phospholipase D (PLD)1, endogenous in HeLa cells (human (endogenous in HeLa)) (UniProt Q13393).
T1 sequence: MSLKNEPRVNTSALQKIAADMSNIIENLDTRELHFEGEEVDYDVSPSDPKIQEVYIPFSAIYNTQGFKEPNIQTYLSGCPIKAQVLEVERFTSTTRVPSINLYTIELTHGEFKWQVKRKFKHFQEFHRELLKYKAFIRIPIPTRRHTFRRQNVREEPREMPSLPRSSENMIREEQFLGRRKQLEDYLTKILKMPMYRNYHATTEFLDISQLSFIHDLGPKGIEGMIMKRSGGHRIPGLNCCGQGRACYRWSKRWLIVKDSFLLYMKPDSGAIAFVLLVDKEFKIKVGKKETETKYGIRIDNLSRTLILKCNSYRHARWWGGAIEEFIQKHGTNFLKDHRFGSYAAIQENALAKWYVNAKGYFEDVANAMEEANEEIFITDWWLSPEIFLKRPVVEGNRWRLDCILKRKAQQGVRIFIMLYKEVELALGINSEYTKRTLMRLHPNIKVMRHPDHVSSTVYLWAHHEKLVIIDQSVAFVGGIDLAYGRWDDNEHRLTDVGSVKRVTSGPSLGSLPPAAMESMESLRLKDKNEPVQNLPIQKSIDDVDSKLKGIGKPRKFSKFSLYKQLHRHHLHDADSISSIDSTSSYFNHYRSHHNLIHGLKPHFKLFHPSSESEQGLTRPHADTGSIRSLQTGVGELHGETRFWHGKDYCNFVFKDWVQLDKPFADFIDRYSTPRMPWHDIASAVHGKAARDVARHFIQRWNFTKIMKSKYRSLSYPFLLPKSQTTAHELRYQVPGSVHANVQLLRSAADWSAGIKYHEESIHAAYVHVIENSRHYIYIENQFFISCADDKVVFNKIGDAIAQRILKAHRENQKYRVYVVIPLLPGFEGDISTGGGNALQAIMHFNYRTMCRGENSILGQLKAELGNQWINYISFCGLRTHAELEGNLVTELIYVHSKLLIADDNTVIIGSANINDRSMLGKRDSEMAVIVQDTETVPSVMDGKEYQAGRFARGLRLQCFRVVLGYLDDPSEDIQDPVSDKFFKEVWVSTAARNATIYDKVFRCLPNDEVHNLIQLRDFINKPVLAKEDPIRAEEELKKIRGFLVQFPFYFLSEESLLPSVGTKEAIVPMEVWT
Kind of experiment: co-IP; HeLa cells serum starved 12 h, EGF 20 nM (control or with t-butanol 0.4%); lysed in buffer A with 1% Triton X-100 and 1% cholic acid; extracts immunoprecipitated with anti-PLD antibody on Protein A-Sepharose, immunoblotted for μ2. (In general: Immunoblotting shows a protein as a band on a membrane.)

Chains of the proteins cited; added tags and fusions are not shown. Residues count along the entry.
UniProt P35568, residues 12-115: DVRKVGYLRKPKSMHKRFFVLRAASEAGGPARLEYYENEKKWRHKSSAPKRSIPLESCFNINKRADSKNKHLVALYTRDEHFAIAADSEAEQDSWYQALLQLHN
UniProt Q96CW1: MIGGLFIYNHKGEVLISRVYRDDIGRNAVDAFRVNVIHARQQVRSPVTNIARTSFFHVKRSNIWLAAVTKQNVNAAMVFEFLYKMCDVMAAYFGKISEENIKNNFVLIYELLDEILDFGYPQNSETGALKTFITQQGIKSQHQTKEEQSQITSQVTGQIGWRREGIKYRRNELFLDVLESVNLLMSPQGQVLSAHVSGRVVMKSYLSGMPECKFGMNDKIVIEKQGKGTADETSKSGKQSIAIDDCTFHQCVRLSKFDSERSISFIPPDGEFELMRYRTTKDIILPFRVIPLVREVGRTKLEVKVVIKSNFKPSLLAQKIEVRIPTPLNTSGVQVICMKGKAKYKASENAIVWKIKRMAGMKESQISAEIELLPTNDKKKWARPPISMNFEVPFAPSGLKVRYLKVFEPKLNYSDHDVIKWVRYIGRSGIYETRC

In experiment [3] the target is T1, phospholipase D (PLD)1, endogenous in HeLa cells (human (endogenous in HeLa)). Kind of experiment: co-IP; as a1, but 1-butanol (0.4%) added 5 min prior to EGF (20 nM) to inhibit phosphatidic acid production.
In experiment [4] the target is T2, wild type PLD1 (rat-origin cDNA) expressed in HeLa cells (rat) (UniProt P70496).
T2 sequence: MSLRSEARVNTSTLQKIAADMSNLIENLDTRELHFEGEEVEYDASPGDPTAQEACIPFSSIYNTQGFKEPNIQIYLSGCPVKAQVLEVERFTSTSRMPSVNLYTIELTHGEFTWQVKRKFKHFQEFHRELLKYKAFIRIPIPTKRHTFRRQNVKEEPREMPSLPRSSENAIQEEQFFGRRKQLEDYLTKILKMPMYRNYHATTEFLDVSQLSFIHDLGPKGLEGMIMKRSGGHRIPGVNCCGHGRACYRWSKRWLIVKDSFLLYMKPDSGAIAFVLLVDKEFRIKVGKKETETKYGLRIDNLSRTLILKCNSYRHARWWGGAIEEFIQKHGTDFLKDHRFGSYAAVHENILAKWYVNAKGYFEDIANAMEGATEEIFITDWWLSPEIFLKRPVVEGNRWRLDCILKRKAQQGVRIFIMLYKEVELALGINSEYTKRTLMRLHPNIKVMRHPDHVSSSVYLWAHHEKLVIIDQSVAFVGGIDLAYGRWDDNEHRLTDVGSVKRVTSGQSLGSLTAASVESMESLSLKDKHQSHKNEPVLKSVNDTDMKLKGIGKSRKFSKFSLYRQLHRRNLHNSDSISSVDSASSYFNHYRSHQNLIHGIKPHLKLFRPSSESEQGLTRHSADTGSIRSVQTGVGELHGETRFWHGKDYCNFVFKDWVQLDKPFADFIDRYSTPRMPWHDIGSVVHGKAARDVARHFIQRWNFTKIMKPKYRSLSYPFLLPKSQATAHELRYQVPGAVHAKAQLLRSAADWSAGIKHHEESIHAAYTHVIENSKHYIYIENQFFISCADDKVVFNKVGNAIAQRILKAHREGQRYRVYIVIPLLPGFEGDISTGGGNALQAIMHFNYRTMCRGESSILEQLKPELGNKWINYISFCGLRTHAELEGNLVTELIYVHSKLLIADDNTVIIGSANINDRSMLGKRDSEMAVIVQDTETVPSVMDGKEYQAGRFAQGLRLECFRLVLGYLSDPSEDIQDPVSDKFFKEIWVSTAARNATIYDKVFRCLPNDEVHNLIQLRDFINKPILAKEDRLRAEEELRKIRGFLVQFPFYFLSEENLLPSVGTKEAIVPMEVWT
In words: co-IP; HeLa cells depleted of endogenous PLD1 and expressing vector, wild type, R304A or R304K PLD1, grown in DMEM with 10% fetal bovine serum; lysates immunoprecipitated with anti-PLD antibody.

Experiment [5] addresses epidermal growth factor receptor (EGFR), endogenous in HeLa cells (human (endogenous in HeLa)) (UniProt P00533). Kind of experiment: co-IP; EGFR-μ2 association in cells without or with transient expression of PLD1 fragment 296–312 (Figure 5C).
The target is the same in experiment [6]. Kind of experiment: condition: only in cells transfected with PLD1 (R304A), PLD1 (R158Q) or PLD1 (K898R) instead of wild type PLD1; co-IP; as a8, in the cells transfected with PLD1 (R304A), PLD1 (R158Q) or PLD1 (K898R) instead of wild type PLD1.
In experiment [7] the target is T3, GST fusion PLD1 PH domain (UniProt P70496).
T3 sequence: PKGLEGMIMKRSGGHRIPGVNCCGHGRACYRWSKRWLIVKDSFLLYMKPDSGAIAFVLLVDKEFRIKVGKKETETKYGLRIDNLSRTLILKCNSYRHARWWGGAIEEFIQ
In words: pull-down; same amounts of GST fusion PLD1 fragments or GST fusion PH domains incubated with purified μ2; western blotting; both purified.

A further experiment concerns the target T4, GST-fusion PLD1 296–312 (UniProt P70496).
T4 sequence: GLRIDNLSRTLILKCNS
The description is as above.

Experiment [8] deals with T5, GST fusion PH domain of dynamin-1 (UniProt Q05193).
T5 sequence: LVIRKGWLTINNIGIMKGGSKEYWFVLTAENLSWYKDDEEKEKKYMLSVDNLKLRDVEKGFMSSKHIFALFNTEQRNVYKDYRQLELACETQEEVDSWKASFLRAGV
The experiment is described as above.

In experiment [9] the target is GST fusion PH domain of IRS-1 (UniProt P35568). The experiment is described as above.
In a further experiment the target is T6, purified PLD1 (UniProt P70496).
T6 sequence: T2 sequence
In words: pull-down; purified PLD1 immobilized with anti-PLD antibody, incubated with purified GST-μ2; 500 µl buffer A (50 mM Hepes-NaOH pH 7.5, 3 mM MgCl2, 2 mM CaCl2, 3 mM EGTA, 80 mM KCl) with 1% Triton X-100, 4°C, 3 h; without or with C6-PA (PA increased the interaction in a dose-dependent manner); both purified.

Another experiment addresses T7, PLD1 (R158Q) (rat) (UniProt P70496).
T7 sequence: T2 sequence with R158Q
In words: pull-down; PLD1 constructs transiently expressed in HeLa cells, immunoprecipitated and incubated with purified GST-μ2 in the presence of 20 nM C6-PA; only the binder purified.

Numbering of substitutions follows the chain as printed. These are yes or no findings as the source states them, for the method shown. For part of these data: In cells and extracts the contact can be indirect. Some entries that bind do so weakly or less than the wild type. For part of these data: Where a sequence is shown, tags or fusion partners need not be part of it.

Regarding “μ2 subunit of AP2, endogenous in HeLa cells (from UniProt Q96CW1 1-435)”, the binding entry in experiment [1] is “binds”; in experiment [2] it was “binds”; in [3] it was “no binding (condition: with 1-butanol (0.4%))”; in experiment [4], “binds”; in experiment [5], “binds”; in [6] it was “no binding”.
With purified μ2 (from UniProt Q96CW1 1-435), the binding result in experiment [7] is “binds”; in the experiment with GST-fusion PLD1 296–312, “binds”; in experiment [8], “no binding”; in experiment [9] it was “no binding”.
Regarding GST-μ2 (from UniProt Q96CW1 1-435), the figures for the binding entry in the experiment with purified PLD1 and with PLD1 (R158Q) (rat) were “binds” and “no binding”, respectively.

These data come from publication PMC2739277.
